The record followed here is ChEMBL document CHEMBL1201862, “PubChem BioAssay data set” (2004).

Values joined by “and” are separate entries in the source; they are usually repeats but may differ in a detail not shown here. Equal values may be shown once.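 Interpolation was linear, between the two tested concentrations surrounding the appropriate level; five concentrations were tested over 48 hours in 96-well plates. Abbreviation: GI50, concentration required for 50% inhibition of growth.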 Active and inactive are the calls of the source. Rule as the data show it: active = GI50 up to about 1.1 µM and inactive = higher.

The assay concerns NCI-H322M. Description: growth of human tumour cells (NCI), 48 h.
For `O=C(O)/C(=C\c1ccncc1)c1cccc2ccccc12`, the GI50 is inactive: > 100 µM. Take `Cn1c(=O)c2c(nc(Cc3ccccc3)n2CC(=O)O)n(C)c1=O`: the GI50 was inactive: > 100 µM.

Consider `FC(F)(Sc1ncccn1)c1nc2ccccc2o1`, for which the GI50 was inactive: > 100 µM.

Turning to `CC(=O)NC1(C(=O)N[C@@H](Cc2ccccc2)C(=O)NC2CCCCC2)Cc2ccc3ccccc3c2-c2c(ccc3ccccc23)C1`, the GI50 is inactive: 70.5 µM and inactive: 44.8 µM. Take `COc1ccc(C[C@H](N)C(=O)N2C[C@@H](CO)C[C@@H](n3cnc4c(N(C)C)ncnc43)C2)cc1`: the GI50 is inactive: > 100 µM. Regarding `CN(C(=O)C1=CCC2(CC1)OCCO2)c1ccccc1I`, the GI50 was inactive: > 100 µM. As for `COc1ccc(N2C(=O)C3ON(C(C(N)=O)c4ccccc4)C(c4cc5ccccc5c5ccccc45)C3C2=O)cc1` (stereo not drawn), the figure is inactive: > 50 µM; as for `C=C(CC)C[C@@H]1C[C@]2(C(=O)OC)c3[nH]c4ccccc4c3CCN2C1=O`, inactive: 22.7 µM; as for `CC1=C2C(=C[C@H]3[C@]4(C)CCCC(C)(C)[C@H]4CC[C@]34O[C@H]24)OC1=O`, inactive: > 100 µM.

Consider `COc1ccc(C(C#N)NC23CC4CC(CC(C4)C2)C3)cc1OC` (stereo not drawn), for which the GI50 was inactive: > 100 µM.

In the case of `Nc1ccn(C2OC(CO)C(O)C2(F)F)c(=O)n1` (stereo not drawn), the GI50 was active: 0.635 µM. For the molecule `COC(=O)c1cc(NC2OCC(OC(C)=O)C(OC(C)=O)C2OC(C)=O)nc(SC)c1C(=O)OC` (stereo not drawn), the GI50 was inactive: > 100 µM. As for `CC(C)(C)[Si](C)(C)OC[C@H](/C=C\CCCC(=O)O)NC1(c2ccccc2)c2ccccc2-c2ccccc21`, the figure is inactive: 23.7 µM; as for `S=c1sc2cscc2s1`, inactive: 21.3 µM; as for `COc1ccccc1/C=C1\CCC(CCN2CCOCC2)C1=O` (stereo not drawn), inactive: > 100 µM.

As for `O=C(CCC(NC(=O)OCc1ccccc1)C(=O)OCc1ccccc1)Nc1cccc(OCc2ccccc2)c1` (stereo not drawn), the GI50 was inactive: 32.7 µM. Regarding `CCOC(=O)c1ccc(C)c(/N=N/N(C)C)c1`, the GI50 was inactive: > 100 µM. Turning to `CN(C)CC(CC1=C(CC(CN(C)C)N(C)C)CCC1)N(C)C` (stereo not drawn), the GI50 was inactive: > 100 µM. As to `O=C1NN=C(c2ccc([N+](=O)[O-])cc2)C1n1nc(-c2ccccc2)c2ccccc2c1=O` (stereo not drawn), the GI50 is inactive: > 100 µM. `CCOC(=O)c1c(NC(=O)Nc2ccccc2)c(C(N)=O)c2n1CCCCC2`: the GI50 is inactive: > 100 µM. Take `O=c1ccc2ccc(S)cc2o1`: the GI50 was inactive: > 100 µM. With `C(=C/c1nc2ccccc2o1)/c1ccc2c(c1)OCO2`, the GI50 was inactive: 23.1 µM. Consider `Nc1n[nH]c(CCCCCCCc2nnc(N)[nH]2)n1`, for which the GI50 is inactive: > 100 µM. For the molecule `COc1ccc(N2CN(C)CSC2=S)cc1`, the GI50 is inactive: > 100 µM. With `O=C(c1cccs1)N(C(=S)N1CCN(c2ccccc2)CC1)C1CCCCC1`, the GI50 was inactive: > 100 µM.

Turning to `COC(=O)/C=C(\C)CCC1SC1(C)C` (stereo not drawn), the GI50 was inactive: > 100 µM. For `N=C(NNS(=O)(=O)c1ccccc1)Oc1ccc(Cl)cc1`, the GI50 was inactive: > 100 µM. Take `N#C/C(=C/NC(=S)NCc1ccccc1)C(N)=O`: the GI50 is inactive: > 100 µM. Regarding `CN1CCN(Cn2nc(COc3ccc(Cl)cc3)n(/N=C/c3ccc(-c4ccc(Cl)cc4Cl)o3)c2=S)CC1`, the GI50 is inactive: 6.18 µM. The value for `CCCCCCCCCCCC[N+](CCCCCCCCCCCC)=C1SCCS1` was inactive: 17 µM. For `CC12CCC3C(CCC4(O)C=CCCC34C=O)C1(O)CC(O)C2c1ccc(=O)oc1` (stereo not drawn), the GI50 was active: 0.0562 µM. The value for `CSc1n[n+](C)cc(N)c1N` was inactive: > 100 µM; that for `C/C(=N\O)C1CC(CC(=O)O)C1(C)C` (stereo not drawn) was inactive: > 100 µM; that for `CN1c2ccccc2C(=O)NC12CCN(CCCC(=O)c1ccc(F)cc1)CC2` was inactive: > 100 µM. For `CC(=O)O[C@@H]1[C@H]2[C@@H](OC(=O)c3ccccc3)[C@@H](C)C[C@]2(O)[C@H](OC(C)=O)[C@@]2(C)[C@@H]3C[C@@](C)(OC(C)=O)C[C@@H](OC(C)=O)[C@@]3(OC(C)=O)C[C@@]12C`, the GI50 was inactive: > 10 µM. On to `CCOC(=O)C(NC(=O)Nc1ccccc1)(Nc1cccc(Cl)c1)C(F)(F)F` (stereo not drawn), for which the GI50 was inactive: > 100 µM. For the molecule `CO/N=C1/c2sccc2[C@H](NC(=O)C(F)(F)F)[C@@H]1O`, the GI50 was inactive: > 100 µM.

As for `COc1ccc2c(c1)c1c(n2CCN2CCCCC2)-c2cccc(OC)c2CC1`, the GI50 is inactive: 17.3 µM. `COC(OC)(c1ccccc1)C(Br)Br`: the GI50 was inactive: > 100 µM.

For the molecule `CN1CC2(CCCCC2)C(O)C12C=CCCC2` (stereo not drawn), the GI50 is inactive: > 100 µM. For `COC(=O)/C=C(C)/C=C\COC1CCCCO1` (stereo not drawn), the GI50 is inactive: > 100 µM. `O=C1c2ccccc2C(=O)N1CCn1nc(-c2ccccc2)cc(-c2ccccc2)c1=O`: the GI50 was inactive: > 100 µM. `BrC(/C=N/Nc1nnc(-c2ccccc2)c(-c2ccccc2)n1)C(Br)c1ccccc1` (stereo not drawn): the GI50 was inactive: 24.8 µM.

As for `Cc1ccc(C(=O)N/N=C(\N=N\c2ccc([N+](=O)[O-])cc2)c2ccc(N(CCC#N)CCC#N)cc2C)cc1`, the GI50 is inactive: > 100 µM. On to `CN(C)c1ccc(C2CC(=O)CC(c3ccc(N(C)C)cc3)C23C(=O)NC(=O)NC3=O)cc1` (stereo not drawn), for which the GI50 is inactive: > 25 µM. With `CCN1C(=O)C(=Cc2ccc(-c3ccccc3)cc2)C(=O)N(CC)C1=S`, the GI50 was inactive: > 100 µM. As to `c1ccc2c(c1)N=C(NC1CCCCC1)CCN2`, the GI50 is inactive: > 100 µM. For the molecule `Cc1nc2ccc(NC3OCC(O)C(O)C3O)cc2c(=O)n1-c1ccccc1` (stereo not drawn), the GI50 is inactive: > 100 µM. The value for `CN(C)CCCCN1c2ccccc2Sc2ccc(C(=O)c3ccccc3)cc21` was inactive: 2.33 µM; that for `CC(=O)C(CN1CCCCC1)C(c1ccccc1)c1c(O)c2ccccc2oc1=O` (stereo not drawn) was inactive: > 100 µM; that for `O=c1c2cccnc2ncn1CCCN1CCCCC1` was inactive: > 100 µM. On to `CN(C)CC(C)(C)/C(=N\Nc1ccccc1)c1ccccc1`, for which the GI50 was inactive: > 100 µM. Turning to `CSc1nc(NC2OC(COC(C)=O)C(OC(C)=O)C(OC(C)=O)C2OC(C)=O)c(/N=C(\C)C(C)=O)c(=O)[nH]1` (stereo not drawn), the GI50 is inactive: > 100 µM. As for `COc1ccc(Br)c(CN2CCc3ccccc32)c1OS(=O)(=O)c1ccc(C)cc1`, the figure is inactive: 56.8 µM. As for `C/C(=C/C(=O)N(C)c1ccccc1Cl)O[Si](C(C)C)(C(C)C)C(C)C`, the figure is inactive: 23.8 µM; as for `COC(=O)C1(NC(=O)C(CC(=O)OCc2ccccc2)NC(=O)OCc2ccccc2)CCCCCCC1` (stereo not drawn), inactive: > 100 µM; as for `CCOc1cc(C(=O)O)c2c(ccc3ccc(OC)c(OC)c32)c1OC`, inactive: > 100 µM.

`CCOC(=O)CN(Cn1cncn1)Cn1cncn1`: the GI50 is inactive: 55.1 µM. Take `O=C(NC/C=C/CO)c1ccccc1`: the GI50 is inactive: > 100 µM.

As for `COc1ccc(Nc2nc3ccccc3nc2-c2cccs2)cc1`, the GI50 was inactive: > 100 µM. As to `CCO/C=N\C1=C(C#N)SC2=N/C(=C\c3ccc(OC)cc3)C(=O)N21`, the GI50 was inactive: > 100 µM.

With `O=c1[nH]cnc2sc(=S)c3c(c12)CCC3`, the GI50 was inactive: 35.9 µM. As to `COc1cc2c(cc1OCCCC(=O)Nc1cc(C(=O)Nc3cc(C(=O)Nc4cc(C(=O)NCCCN(C)C)n(C)n4)n(C)c3)n(C)c1)N=CC1CCCN1C2=O` (stereo not drawn), the GI50 is inactive: > 100 µM. Turning to `CSc1nc(C)c2c(n1)SCC2`, the GI50 is inactive: > 10 µM. Take `COc1cc(CCN(C)C)cc(OC)c1OC`: the GI50 is inactive: > 100 µM. Regarding `CCC(C)C1NC(=O)C2CCCN2C(=O)C(CC2CO2)OC(=O)CCNC(=O)C(C)N(C)C(=O)C(C(C)C)N(C)C1=O` (stereo not drawn), the GI50 was inactive: 5.33 µM. As for `O=C(O)C(F)(F)C(F)(F)C(F)(F)C(F)(F)C(F)(F)C(F)(F)C(F)(F)C(F)(F)F`, the GI50 is inactive: 53.5 µM.

Consider `CCC12CCC(O)C1N(C)CCC2Sc1ccccc1` (stereo not drawn), for which the GI50 was inactive: > 100 µM. For `COc1ccc(NC(=O)CC(=O)N2N=C(N3c4ccccc4Sc4ccccc43)CC2c2ccccc2)cc1` (stereo not drawn), the GI50 is inactive: > 100 µM. On to `CC1CC/C(=C\c2ccc(F)cc2)C(=O)/C1=C/c1ccc(F)cc1` (stereo not drawn), for which the GI50 is inactive: 7.38 µM. Turning to `CC1=C(C#N)c2nc3ccccc3n2C(=O)C1(C)CCO` (stereo not drawn), the GI50 is inactive: > 100 µM. In the case of `CC1(C)CC[C@]2(C)CC[C@]3(C)C(=CC[C@@H]4[C@@]5(C)CCC(=O)C(C)(C)[C@@H]5[C@H](O)C[C@]43C)[C@@H]2C1`, the GI50 is inactive: 16.8 µM. Regarding `COC(=O)CNCC1OC2OC(C)(C)OC2C1N=[N+]=[N-]` (stereo not drawn), the GI50 was inactive: > 100 µM.

Consider `N#CC(=C1CCCCC1)c1nc2ccccc2o1`, for which the GI50 was inactive: > 100 µM.

Regarding `C[C@@H]1O[C@]2(O)[C@@H]3CCCN3S(=O)(=O)CCN2C1=O`, the GI50 is inactive: > 100 µM. In the case of `CC(C)=CC1CC(=O)C1(C)Sc1ccccc1` (stereo not drawn), the GI50 was inactive: > 100 µM.

Regarding `CC(=O)OCC1OC(n2c3c(c(-c4ccco4)c(C#N)c2=S)CCC3)C(OC(C)=O)C(OC(C)=O)C1OC(C)=O` (stereo not drawn), the GI50 was inactive: > 100 µM. Regarding `Nc1ccn(CC(CO)CC(c2ccccc2)P(=O)(O)O)c(=O)n1` (stereo not drawn), the GI50 was inactive: > 100 µM. With `NCCCCN(CCCN)Cc1ccccc1`, the GI50 was inactive: > 100 µM. As for `COC1=C2CC(C)CC(OC)C(OC(=O)CN)[C@H](C)/C=C(\C)C(OC(N)=O)C(OC)/C=C\C=C(/C)C(=O)NC(=CC1=O)C2=O` (stereo partly drawn), the GI50 is inactive: 12.7 µM. For `OCC1C2C=CC(O2)[C@H]1CO` (stereo partly drawn), the GI50 is inactive: > 100 µM. As for `CC(=O)OC(C)c1cc2c(s1)C(=O)c1ccsc1C2=O` (stereo not drawn), the figure is inactive: 1.46 µM; as for `COc1cc(CCc2ccc(OCCN(C)C)cc2)cc(OC)c1OC`, inactive: > 100 µM.
